The supplement of paper PMC8728848
This is one part of the list.

Assays:
Test in all cases: glycan array binding signal (z-score within array); higher = stronger binding
Details in all cases: glycan notation: IUPAC condensed, linker removed
[1] = biological target: Fuc(a1-2)[Gal(a1-3)]Gal(b1-4)GlcNAc(b1-2)Man(a1-3)[Fuc(a1-2)[Gal(a1-3)]Gal(b1-4)GlcNAc(b1-2)Man(a1-6)]Man(b1-4)GlcNAc(b1-4)[Fuc(a1-6)]GlcNAc
Procedure, shortened: (§1)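 The binding signal is a Z-score computed within each array and averaged over linkers. Arrays of the same protein sequence at different concentrations or buffers were also averaged together. Data originate from 3228 arrays in the Consortium for Functional Glycomics database, kept only where the protein sequence was available.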

[2] = biological target: Fuc(a1-2)[Gal(a1-3)]Gal(b1-4)GlcNAc(b1-3)GalNAc
Procedure, shortened: as §1

[3] = biological target: Fuc(a1-2)[Gal(a1-3)]Gal(b1-4)GlcNAc(b1-6)GalNAc
Procedure, shortened: as §1

[4] = biological target: Fuc(a1-2)[Gal(a1-3)]Gal(b1-4)[Fuc(a1-3)]Glc
Procedure, shortened: as §1

[5] = biological target: Fuc(a1-2)[Gal(a1-3)]Gal(b1-4)[Fuc(a1-3)]GlcNAc
Procedure, shortened: as §1

[6] = biological target: Fuc(a1-2)[Gal(a1-3)]Gal(b1-4)[Fuc(a1-3)]GlcNAc(b1-3)GalNAc
Procedure, shortened: as §1

[7] = biological target: Fuc(a1-2)[Gal(a1-4)]Gal(b1-4)GlcNAc
Procedure, shortened: as §1

[8] = biological target: Fuc(a1-2)[GalNAc(a1-3)]Gal
Procedure, shortened: as §1

[9] = biological target: Fuc(a1-2)[GalNAc(a1-3)]Gal(b1-3)GalNAc(a1-3)[Fuc(a1-2)]Gal(b1-4)GlcNAc
Procedure, shortened: as §1

[10] = biological target: Fuc(a1-2)[GalNAc(a1-3)]Gal(b1-3)GalNAc(b1-3)Gal(a1-4)Gal(b1-4)Glc
Procedure, shortened: as §1

[11] = biological target: Fuc(a1-2)[GalNAc(a1-3)]Gal(b1-3)GlcNAc
Procedure, shortened: as §1

[12] = biological target: Fuc(a1-2)[GalNAc(a1-3)]Gal(b1-3)GlcNAc(b1-2)Man(a1-3)[Fuc(a1-2)[GalNAc(a1-3)]Gal(b1-3)GlcNAc(b1-2)Man(a1-6)]Man(b1-4)GlcNAc(b1-4)GlcNAc
Procedure, shortened: as §1

[13] = biological target: Fuc(a1-2)[GalNAc(a1-3)]Gal(b1-3)GlcNAc(b1-2)Man(a1-3)[Fuc(a1-2)[GalNAc(a1-3)]Gal(b1-3)GlcNAc(b1-2)Man(a1-6)]Man(b1-4)GlcNAc(b1-4)[Fuc(a1-6)]GlcNAc
Procedure, shortened: as §1

[14] = biological target: Fuc(a1-2)[GalNAc(a1-3)]Gal(b1-3)GlcNAc(b1-3)GalNAc
Procedure, shortened: as §1

[15] = biological target: Fuc(a1-2)[GalNAc(a1-3)]Gal(b1-3)GlcNAc(b1-6)GalNAc
Procedure, shortened: as §1

[16] = biological target: Fuc(a1-2)[GalNAc(a1-3)]Gal(b1-4)Glc
Procedure, shortened: as §1

[17] = biological target: Fuc(a1-2)[GalNAc(a1-3)]Gal(b1-4)GlcNAc
Procedure, shortened: as §1

[18] = biological target: Fuc(a1-2)[GalNAc(a1-3)]Gal(b1-4)GlcNAc(b1-2)Man
Procedure, shortened: as §1

[19] = biological target: Fuc(a1-2)[GalNAc(a1-3)]Gal(b1-4)GlcNAc(b1-2)Man(a1-3)[Fuc(a1-2)[GalNAc(a1-3)]Gal(b1-4)GlcNAc(b1-2)Man(a1-6)]Man(b1-4)GlcNAc(b1-4)GlcNAc
Procedure, shortened: as §1

[20] = biological target: Fuc(a1-2)[GalNAc(a1-3)]Gal(b1-4)GlcNAc(b1-2)Man(a1-3)[Fuc(a1-2)[GalNAc(a1-3)]Gal(b1-4)GlcNAc(b1-2)Man(a1-6)]Man(b1-4)GlcNAc(b1-4)[Fuc(a1-6)]GlcNAc
Procedure, shortened: as §1

[21] = biological target: Fuc(a1-2)[GalNAc(a1-3)]Gal(b1-4)GlcNAc(b1-3)Gal(b1-4)GlcNAc
Procedure, shortened: as §1

[22] = biological target: Fuc(a1-2)[GalNAc(a1-3)]Gal(b1-4)GlcNAc(b1-3)Gal(b1-4)GlcNAc(b1-3)Gal(b1-4)GlcNAc
Procedure, shortened: as §1

[23] = biological target: Fuc(a1-2)[GalNAc(a1-3)]Gal(b1-4)GlcNAc(b1-3)GalNAc
Procedure, shortened: as §1

[24] = biological target: Fuc(a1-2)[GalNAc(a1-3)]Gal(b1-4)GlcNAc(b1-3)[Fuc(a1-2)[GalNAc(a1-3)]Gal(b1-4)GlcNAc(b1-6)]GalNAc
Procedure, shortened: as §1

[25] = biological target: Fuc(a1-2)[GalNAc(a1-3)]Gal(b1-4)GlcNAc(b1-6)GalNAc
Procedure, shortened: as §1

[26] = biological target: Fuc(a1-2)[GalNAc(a1-3)]Gal(b1-4)[Fuc(a1-3)]GlcNAc
Procedure, shortened: as §1

[27] = biological target: Fuc(a1-2)[GalNAc(a1-3)]Gal(b1-4)[Fuc(a1-3)]GlcNAc(b1-3)GalNAc
Procedure, shortened: as §1

[28] = biological target: Fuc(a1-2)[GalNAc(a1-4)]Gal(b1-4)GlcNAc
Procedure, shortened: as §1

[29] = biological target: Fuc(a1-2)[GalNAc(b1-3)]Gal
Procedure, shortened: as §1

Fuc(a1-3)GlcNAc = biological target: Fuc(a1-3)GlcNAc
Procedure, shortened: as §1

B1: Blon2468mut (Bifidobacterium longum) (protein)
chain: MTFIKQMMPRYVASMTAGIVAAAMAATCAFAPVANADAVSPTQETIQSTGRHFMVYYRAWRDVTMKGVNTDLPDDNWISMYDIPYGVDVVNIFSYVPSGQEEQAQPFYDKLKSDYAPYLHSRGIKLVRGIDYTGVAVNGFRTFMKEQNKTESEATEADYDAYAKQVIDKYMISVGLDGLDIDMQAHPNDADVKISDNVIRALSKHIGPKSAKPDTTMFLYDTNGSYLNPFKNVAECFDYVAYQQYGSSSDRTARAAADYQPYIGNEFVPGLTFPEEGDMNNRWYDATEPYEESHFYQVASYVREHNLGGMFVYALDRDGRNYDEDLRRIVPSNLLWTKTAIAESEGMALDTAKTAANHYLDRMSLRQVIDDNAASADKARDMVGKAANLYETNKAVLGGDYGEGFSNTYDPTLEAGLLGIDISVLQQQIDKSSEIIGADTAESDAKTALRMARDAAIDGLTGKIYTADQVSAWSQALKAALDATVPVPTPDSTDQNGNRDKVTNHKVQGQPKQLSATGISTDIIVAVGVTLAIAGVALSLSRKLS
glycan array binding signal (z-score) [1]: -0.065
glycan array binding signal (z-score) [2]: -0.072
glycan array binding signal (z-score) [3]: -0.011
glycan array binding signal (z-score) [4]: -0.082
glycan array binding signal (z-score) [5]: -0.049
glycan array binding signal (z-score) [6]: -0.064
glycan array binding signal (z-score) [7]: -0.06
glycan array binding signal (z-score) [8]: -0.054
glycan array binding signal (z-score) [9]: -0.077
glycan array binding signal (z-score) [10]: -0.069
glycan array binding signal (z-score) [11]: -0.077
glycan array binding signal (z-score) [12]: -0.076
glycan array binding signal (z-score) [13]: -0.036
glycan array binding signal (z-score) [14]: -0.047
glycan array binding signal (z-score) [15]: -0.068
glycan array binding signal (z-score) [16]: -0.027
glycan array binding signal (z-score) [17]: -0.07
glycan array binding signal (z-score) [18]: -0.064
glycan array binding signal (z-score) [19]: -0.055
glycan array binding signal (z-score) [20]: -0.089
glycan array binding signal (z-score) [21]: -0.089
glycan array binding signal (z-score) [22]: -0.095
glycan array binding signal (z-score) [23]: -0.06
glycan array binding signal (z-score) [24]: -0.072
glycan array binding signal (z-score) [25]: -0.063
glycan array binding signal (z-score) [26]: -0.04
glycan array binding signal (z-score) [27]: -0.073
glycan array binding signal (z-score) [28]: -0.021
glycan array binding signal (z-score) [29]: -0.061
glycan array binding signal (z-score) (Fuc(a1-3)GlcNAc): -0.047
